Reference: the supplement of paper PMC7335073
Whole data set: some 4,100 sequences, median “relative CpG methylation activity (normalised to average over all NNNCGNNN flanks)” near 0.87, cut for the highest 2% near 2.4. The list shows a part of the results.

These sequences were tested against DNMT3A catalytic domain (mouse) (UniProt O88508) (assay: relative CpG methylation activity (normalised to average over all NNNCGNNN flanks) (relative (1 = mean)); higher = more methylation of the central CpG). Details: system: in vitro, murine catalytic domain; CpG state: hemimethylated substrate pool; residues: 608-908.
How it was run: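 Each experiment was done in two independent repeats, using pooled dsDNA substrates with a central CpG flanked by 10 random nucleotides, methylated for 60 min at 37 °C by the murine DNMT3A or DNMT3B catalytic domain with 0.8 mM S-adenosyl-L-methionine in HEPES pH 7.5 buffer. After bisulfite conversion and PCR, the DNA was read by Illumina sequencing. Methylation was averaged per context, defined by three bases on each side of the CpG. Relative methylation activity is each context's average methylation over the mean of all contexts.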

Row | Sequence | relative CpG methylation activity
1 | GTACGTTA | 1.88
2 | TGCCGTCC | 1.48
3 | ACTCGAGG | 0.523
4 | CTGCGACC | 1.64
5 | TAGCGAAT | 0.229
6 | TCCCGCAC | 1.26
7 | CAGCGGAA | 0.593
8 | ACCCGGGA | 0.789
9 | GGTCGGAG | 0.106
10 | GCACGCCC | 2.31
11 | GGCCGCTG | 0.873
12 | CGGCGTTT | 0.165
13 | GTGCGAAT | 0.763
14 | AGGCGCTA | 0.935
15 | CACCGTTA | 0.751
16 | CTCCGCCG | 2.31
17 | ACGCGATA | 1.01
18 | TTACGGCG | 1.26
19 | AATCGCAG | 0.0816
20 | GGGCGATA | 0.633
21 | TGCCGCGG | 0.2
22 | CTTCGCAT | 1.58

Row | Sequence | relative CpG methylation activity
23 | AAACGACT | 0.674
24 | GTGCGCTA | 1.91
25 | GTTCGGGC | 0.859
26 | GTACGTGA | 1.49
27 | CGTCGGGT | 0.53
28 | ATACGGTG | 0.775
29 | TGACGTCT | 1.07
30 | ATTCGCCA | 1.42
31 | CTTCGAGC | 1.36
32 | CGCCGGGC | 0.825
33 | TTTCGCTG | 1.2
34 | ATCCGCCT | 2.5
35 | CTCCGAGT | 1.62
36 | TATCGAGA | 0.41
37 | CTGCGACT | 1.28
38 | GTACGTCC | 2.41
39 | TGGCGAAG | 0.099
40 | ACCCGAAG | 0.854
41 | GGGCGCCG | 1.5
42 | TCACGTGT | 0.625
43 | AATCGCCT | 1.61
44 | ACCCGCGC | 1.28

Row | Sequence | relative CpG methylation activity
45 | TGTCGTTG | 0.786
46 | CTGCGTGC | 0.932
47 | TCCCGCCT | 1.94
48 | AGGCGCAC | 0.982
49 | GATCGTAT | 0.385
50 | CGACGTCG | 1.28
51 | TTGCGTGG | 0.368
52 | AGTCGTAT | 0.177
53 | ATCCGATG | 1.26
54 | GGGCGGCC | 1.61
55 | ATCCGCTT | 2.13
56 | CTCCGCAG | 1.21
57 | ATACGTGG | 0.357
58 | TGTCGGGC | 0.635
59 | AATCGGCG | 0.164
60 | GCGCGTTT | 0.575
61 | GTCCGTTA | 1.59
62 | TAACGTGG | 0.025
63 | TTCCGGAC | 1.58
64 | TCGCGAAT | 0.484
65 | GCACGAAC | 1.57
66 | GTGCGTGT | 0.469

Row | Sequence | relative CpG methylation activity
67 | GTGCGTTT | 1.12
68 | TTGCGTAC | 1.47
69 | GTTCGGTC | 1.23
70 | CCTCGGAC | 1.41
71 | ACTCGACG | 0.638
72 | CTGCGACA | 1.34
73 | CATCGATG | 0.296
74 | TTGCGAGG | 0.574
75 | CCACGGGC | 1.41
76 | TCTCGTGT | 0.225
77 | TGCCGCAT | 0.85
78 | ACACGTTA | 1.44
79 | GTCCGCCG | 2.46
80 | ACCCGCGG | 0.374
81 | GATCGATC | 0.766
82 | CGCCGAGC | 1.37
83 | GCCCGATC | 1.42
84 | ATCCGAGG | 1.03
85 | ATGCGAAG | 0.538
86 | AATCGATG | 0.127
